Reference: PubChem BioAssay AID504832 (National Center for Advancing Translational Sciences (NCATS), 2011)
Hit rate of the full screen: of about 310,000 compounds, about 18,000 (5.8%) were called active. This list was built around the results that the source calls inconclusive (neither active nor inactive); the mix of calls is not that of the screen. The call rests on the fitted dose curve; in most records, active means well fitted inhibition curve with a large enough effect; inconclusive means small, poorly fitted or top-dose-only effect, or another doubt; inactive means no such curve, though single readings can be large or run the other way. No potency is given beside an inconclusive call; the fits are too rough.

Assay: Primary qHTS for delayed death inhibitors of the malarial parasite plastid, 48 hour incubation
Details: P. falciparum luciferase growth in erythrocytes; series mostly up to 28.7 µM; activity change, negative = inhibition: at the top concentration
Summary of the method: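 Growth was read as firefly luciferase luminescence after a 48 h, 37 C, 5% CO2 exposure of compounds to reporter-bearing P. falciparum cultures (0.1% parasitemia, 2% hematocrit final) in Albumax-supplemented RPMI 1640.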
On the % scale 0 is the no-effect control and ±100 the full control effect; potency means the concentration at half of the fitted maximal effect; tags describe the fitted curve by direction and shape.

Row | SMILES | activity change, negative = inhibition | Potency
1 | Cc1ccc(N2C(=O)SC(N(CC(=O)O)c3cccc(C)c3)C2=O)cc1 (configuration not stated) | inactive: 44.3% | 
2 | CCOc1nc(-c2ccc(OC)cc2)ccc1-c1noc(-c2ccncc2)n1 |  | inconclusive [inhibitor, single point]
3 | S=C(Nc1ccc(Cl)cc1)NC1CCN(Cc2ccccc2)CC1 |  | inconclusive [inhibitor, partial curve]
4 | CN(CC(=O)Nc1ccc(F)cc1)CC(=O)N1CCCCCC1 | inactive: -15.4% | 
5 | Cc1cccc2cc(CN(Cc3ccc4c(c3)OCO4)Cc3nnnn3C3CCCC3)c(=O)[nH]c12 |  | inconclusive [inhibitor, partial curve]
6 | N#CCC(=O)Nc1ccc(C(=O)Nc2cccc(S(N)(=O)=O)c2)cc1 |  | inconclusive [inhibitor, single point]
7 | CN(CC(=O)Nc1cccc(F)c1)CC(=O)Nc1cccc([N+](=O)[O-])c1 | inactive: -21.3% | 
8 | COc1ccccc1OCC(O)Cn1c(=N)n(Cc2ccccc2)c2ccccc21 (configuration not stated) |  | active: 9.28 µM
9 | CCO[C@H]1OC(C(=O)N2CCN(Cc3ccc4c(c3)OCO4)CC2)=C[C@@H](C2CCCCC2)[C@@H]1CCCO |  | inconclusive [inhibitor, full curve]
10 | Cc1[nH]c(=O)c(S(=O)(=O)c2ccccc2)c(C)c1Cl | inactive: -12.8% | 
11 | CCCCC(CCC(=O)Nc1cc([N+](=O)[O-])ccc1O)C(=O)O (configuration not stated) |  | inconclusive [inhibitor, partial curve, poor fit]
12 | COC(=O)C1=C(CSc2nc3c(cc2C#N)CN(C)CC3)OC(N)=C(C#N)C1c1ccc(F)cc1 (configuration not stated) |  | active: 9.28 µM
13 | O=Nc1c2cc(-c3ccccc3)[nH]nc-2c2ccccc12 | inactive: 226% | 
14 | CCOc1ccc(NC(=O)COC(=O)c2cc(S(=O)(=O)N3CCCC3)ccc2C)cc1 |  | inconclusive [inhibitor, single point]
15 | COc1ccc(NC(=O)Nc2ccc(Cc3ccncc3)cc2)cc1OC |  | inconclusive [inhibitor, partial curve, poor fit]
16 | C=CCC1(N(C(C)=O)c2ccccc2C)CCCCC1 | inactive: -7.54% | 
17 | CC(C)OC(=O)c1c(-c2ccc(C(C)C)cc2)csc1NC(=O)C1CCCO1 (configuration not stated) |  | inconclusive [inhibitor, single point]
18 | CCOC(=O)c1nc(NCc2ccccc2C)c2ccccc2n1 |  | inconclusive [inhibitor, partial curve, poor fit]
19 | Cc1cccc(NC(=O)CNc2cc(C)ccc2C)c1 | inactive: -3.22% | 
20 | COc1ccccc1C(=O)NC(C)c1ccc(-n2ccnc2)cc1 (configuration not stated) |  | inconclusive [inhibitor, partial curve, poor fit]
21 | Nc1nc(CCl)nc(Nc2ccc3ccccc3c2)n1 |  | inconclusive [inhibitor, partial curve, poor fit]
22 | COc1cc(C(O)CO)ccc1OS(=O)(=O)O (configuration not stated) | inactive: -5.03% | 
23 | CCOc1ccc(NC(=O)CN(C)C(=O)c2cc([N+](=O)[O-])ccc2N2CCCCC2)cc1OCC |  | inconclusive [inhibitor, single point]

Row | SMILES | activity change, negative = inhibition | Potency
24 | CC(C)NC(=O)Nc1ccc(Br)cc1Cl | inactive: 24.5% | 
25 | O=C(CN1CCN(C(=O)c2ccco2)CC1)Nc1c2c(nc3c1CCC3)CCCC2 |  | inconclusive [inhibitor, full curve]
26 | Cc1ccc(S(=O)(=O)N2CCN(Cc3cc(C(C)(C)C)ccc3O)CC2)cc1 |  | active: 11.7 µM
27 | CS(=O)(=O)c1ccc(NC(=O)c2cccc(S(=O)(=O)N3CCN(Cc4ccccc4)CC3)c2)cc1 |  | inconclusive [inhibitor, partial curve]
28 | O=C(CSc1ccc(-c2ccccn2)nn1)Nc1cccc(F)c1 | inactive: -24.4% | 
29 | Cc1ccc(C)c(N2CCN(C(=O)c3cc(S(=O)(=O)N4CCOCC4)ccc3F)CC2)c1 |  | inconclusive [inhibitor, single point]
30 | CC(C)Oc1cccc(C(=O)C2CCCN(Cc3cnc(N4CCOCC4)s3)C2)c1 (configuration not stated) |  | inconclusive [inhibitor, single point]
31 | CC(C)CNC(=O)/C(C#N)=C1\N=C(NC(=O)c2ccco2)c2ccccc21 |  | inconclusive [inhibitor, partial curve]
32 | CC(/C=N/NC(=O)c1nn(C)c(C)c1Br)=C\c1ccccc1 | inactive: 54.4% | 
33 | Cc1noc(C)c1CSc1nc2ccccc2nc1NS(=O)(=O)c1ccc(Cl)cc1 |  | inconclusive [inhibitor, single point]
34 | Cc1ccc(C)c(NC(=O)CSc2nc3c(c(=O)n2C)SC(C)C3)c1 (configuration not stated) |  | inconclusive [inhibitor, partial curve]
35 | CCCCn1c(/N=C/c2c[nH]c3ccccc23)nc2ccccc21 |  | inconclusive [inhibitor, single point]
36 | CCC(CC)N=C1NS(=O)(=O)c2cc([N+](=O)[O-])ccc21 |  | inconclusive [inhibitor, single point]
37 | C=C[C@@H]1c2ccccc2N(S(=O)(=O)c2ccc(C)cc2)[C@H](c2ccccc2C(F)(F)F)C1(C#N)C#N |  | inconclusive [inhibitor, partial curve, poor fit]
38 | O=C(N/N=C/c1coc2ccccc2c1=O)c1cccc([N+](=O)[O-])c1 | inactive: -2.92% | 
39 | CC(C)N(C(=O)Cn1cc(SCC(N)=O)c2ccccc21)C(C)C | inactive: -12.3% | 
40 | Cc1cc2c3c([nH]c2cc1S(=O)(=O)NCc1ccc(CN2CCCCCC2)o1)CCCC3=O |  | inconclusive [inhibitor, single point]
41 | N#CC1(NC(=O)COC(=O)c2cc([N+](=O)[O-])ccc2N2CCOCC2)CCCCC1 |  | inconclusive [inhibitor, single point]
42 | CC(C)Cc1cc(C(=O)N2N=C(C(F)F)CC2(O)C(F)F)c2ccccc2n1 (configuration not stated) |  | active: 13.1 µM
43 | CCCn1c(=O)c2c(nc3n2CCCN3CCc2ccc(OC)c(OC)c2)n(C)c1=O |  | inconclusive [inhibitor, partial curve]
44 | O=C1NC2(CCCc3ccccc32)C(=O)N1Cc1nnc(-c2ccccc2Br)o1 (configuration not stated) |  | inconclusive [inhibitor, single point]
45 | O=C(CSc1ncccn1)NC(=O)c1ccccc1 | inactive: 26.9% | 
46 | COc1ccc(C2C(=O)N(C3CCCCC3)CC(=O)N2C2CCCC2)cc1 (configuration not stated) |  | inconclusive [inhibitor, single point]

Row | SMILES | activity change, negative = inhibition | Potency
47 | Cc1c(C)c2c(OCC(=O)N[C@@H](Cc3ccccc3)C(=O)O)cc3c(c2oc1=O)CCC(C)(C)O3 |  | inconclusive [inhibitor, single point]
48 | C=CCn1c(SCC(=O)c2[nH]c(C)c(C(=O)OCC)c2C)nc2scc(-c3ccc(OC)cc3)c2c1=O |  | inconclusive [inhibitor, partial curve]
49 | COCCNc1oc(/C=C/c2ccc(F)cc2)nc1S(=O)(=O)c1ccccc1 |  | inconclusive [inhibitor, partial curve]
50 | Cc1ccc(NS(=O)(=O)c2cccc(C(=O)NCc3ccccn3)c2)cc1 |  | inconclusive [inhibitor, partial curve, poor fit]
51 | Cc1ccc(C2(C)NC(=O)N(CC(=O)Nc3ccccc3C(=O)NC3CCCC3)C2=O)cc1 (configuration not stated) | inactive: -22.7% | 
52 | O=C(N/N=C/c1ccc(OC(=O)c2cccc(F)c2)cc1)c1cccnc1 | inactive: 4.39% | 
53 | CC(C)(C)c1ccc(NC(=O)NC2CCCc3ccccc32)cc1 (configuration not stated) |  | inconclusive [inhibitor, partial curve]
54 | O=C(CCC1N=C2c3ccccc3N=C(SCc3ccccc3Cl)N2C1=O)NCc1ccco1 (configuration not stated) |  | inconclusive [inhibitor, single point]
55 | CC(C(=O)Nc1ccc(Cl)cc1)N(C)Cc1cccs1 (configuration not stated) | inactive: 8.78% | 
56 | Nc1nncn1C(=O)c1cccs1 | inactive: 67.6% | 
57 | Cc1ccccc1OCCC(=O)N(CC(=O)Nc1ccccc1C(F)(F)F)Cc1ccco1 |  | inconclusive [inhibitor, partial curve, poor fit]
58 | COc1ccc(NC(=O)c2ccc(OC(=S)N(C)c3ccc(OC)cc3)cc2)cc1 | inactive: -5.94% | 
59 | CNS(=O)(=O)c1cc(-c2nnc(Nc3ccc(CC(N)=O)cc3)c3ccccc23)ccc1C |  | active: 7.38 µM
60 | CCOC(=O)c1ccc(NC(=O)N2CCN(Cc3ccccc3)CC2)cc1 |  | inconclusive [inhibitor, single point]
61 | CCCCn1c(O)c(/C(CC)=N/N2CCCCC2c2cccnc2)c(=O)[nH]c1=S (configuration not stated) |  | active: 9.28 µM
62 | CC(=O)N(Cc1cccc(Br)c1)c1ccc(N2CCOCC2)c(Cl)c1 |  | inconclusive [inhibitor, full curve, poor fit]
63 | COc1ccccc1CN(C)C(=O)C(c1ccccc1)c1ccccc1 |  | inconclusive [inhibitor, single point]
64 | COC(=O)C1(Cc2cc(-c3ccc([N+](=O)[O-])cc3)no2)CCN(C(=O)OC(C)(C)C)CC1 |  | inconclusive [inhibitor, single point]
65 | COc1ccccc1N1C(=O)c2cccc3cccc(c23)C1=O |  | inconclusive [inhibitor, full curve, poor fit]
66 | O=c1c2ccccc2nc2c3ccccc3c(NCc3cccnc3)nn12 |  | inconclusive [inhibitor, full curve, poor fit]
67 | CCOC(=O)C1CCN(C(=O)c2ccc(N3CCCC3=O)cc2)CC1 |  | inconclusive [inhibitor, partial curve, poor fit]
